In PubChem BioAssay AID493208 (National Center for Advancing Translational Sciences (NCATS), 2011):
About 340 (0.77%) of roughly 44,000 compounds were called active. About 5% were inconclusive and are not listed. The call rests on the fitted dose curve; in most records, active means well fitted inhibition curve with a large enough effect; inconclusive means small, poorly fitted or top-dose-only effect; inactive means flat fitted curve, though single readings scatter. The list shows a part of the results.

experiment: Acumen qHTS Assay for Inhibitors of the mTORC1 Signaling Pathway in MEF (Tsc2-/-, p53-/-) Cells: Sytravon; settings: phospho-rpS6 immunofluorescence/PI, 24 h; series mostly up to 38.3 µM; activity change, negative = inhibition: at the top concentration;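 further: plate controls were DMSO for no effect and rapamycin for full effect; nearly all actives have a fitted effect of over 50% in size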
Method in brief: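 Readout is phospho-S6 Alexa 488 signal normalized to PI per well, reported as % active cells with thresholds set from rapamycin (7.5 nM) and DMSO controls. Cells: Tsc2-/-, p53-/- MEFs, 24 hrs compound at 37 C; PI cell number serves as viability.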

Activity change, negative = inhibition, inactive:
COc1ccc(C2NC(=O)N(C)C3=C2C(=O)N(c2cccc(C(=O)O)c2)C3)cc1 (stereo not given) 9.89%
COc1ccc(Cl)cc1CNCCSc1nnnn1-c1ccccc1 -23.1%
COc1ccc(CNC(=O)CN2C(=O)CCn3nc(-c4ccccc4)cc32)c(OC)c1 4.98%
COc1ccc(S(=O)(=O)Nc2cc3c(C(=O)OC(C)C)c(C)oc3c3ccccc23)cc1 -14%
CC(CCc1ccccc1)NC(=O)CSc1n[nH]c(-c2ccc(F)cc2)n1 (stereo not given) -0.45%
COc1ccc(N2C(=O)Cc3cc(OC)c(OC)cc3C2c2ccc(F)cc2)cc1 (stereo not given) -16.1%
Cc1cccc(Cn2cc(C(=O)Nc3cc(F)ccc3F)ccc2=O)c1 -8.4%
Cc1oc2ncn(C)c(=O)c2c1C(=O)NCc1ccc(Cl)cc1 -5.41%
COc1ccc(-c2nc(Cn3c(SCc4cccc(C(F)(F)F)c4)nc4cccnc43)c(C)o2)cc1OC 1.46%
CC1=C(C(=O)Nc2ccc(C)cc2C)C(c2ccc(O)cc2)n2nc(SCC(=O)c3ccc(C)cc3)nc2N1 (stereo not given) 2.01%
Cn1c(Nc2ccc(Cl)cc2)cc(=O)n(C)c1=O 5.12%
COc1ccc(-c2nn3c(=O)cc(CN4CCN(S(=O)(=O)c5ccc(C)cc5)CC4)nc3s2)cc1 -0.777%
COc1ccc(OC)c(CNC(=O)C2CCCCN2S(=O)(=O)c2ccc(F)cc2)c1 (stereo not given) -9.35%
COc1ccc(C(=O)Nc2ccc(S(=O)(=O)N(Cc3ccccc3)c3ccccc3)cc2)cc1 -5.64%
Cc1cc(OCC(O)CN2CCN(c3cccc(Cl)c3)CC2)ccc1Cl (stereo not given) -0.545%
CC(C)Cc1nn2c(=O)cc(COC(=O)c3ccccc3NC(=O)C3CCCCC3)nc2s1 0%
CCCc1nn2c(=O)cc(COC(=O)c3ccc(NC(=O)C4CCCCC4)cc3)nc2s1 8.5%
CCc1nnc2c(Nc3ccc(N(CC)CC)cc3C)nc3ccccc3n12 -2.47%
Cc1ccc(S(=O)(=O)NCc2nc3cccnc3n2Cc2ccccc2Cl)c(C)c1 0.739%
Cc1cc(S(=O)(=O)Nc2ccc(C(=O)O)cc2)c(C)c(S(=O)(=O)c2ccc(Cl)cc2)c1 -1.54%
COc1ccc(C)cc1NC(=O)c1cn(C)c(=O)c2cc(OC)c(OC)cc12 7.89%
COc1cccc(NS(=O)(=O)c2ccc3c(c2)N(C)C(=O)CC(=O)N3C)c1 -1.2%
CCc1ccccc1NC(=O)N1CC(C)Sc2ccccc21 (stereo not given) -1.1%
COc1ccccc1NC(=O)CN1C(=O)c2ccccc2Sc2ccc(C(=O)N3CCCC3)cc21 2.57%
CC(=O)c1ccccc1OCC(O)Cn1c(CO)nc2ccccc21 (stereo not given) 4.92%
CC(=O)c1ccc(NC(=O)c2nc(-c3ccccc3)n(-c3ccccc3)n2)cc1 3%
O=C(Nc1ccc(Br)cc1F)N1CC=C(c2c[nH]c3ccccc23)CC1 -0.0664%
COc1cccc(N2CCN(C(=O)CCCCCn3c(=O)[nH]c4ccccc4c3=O)CC2)c1 1.58%
CCc1ccc(CNC(=O)c2cc3c(=O)n(Cc4cccs4)ccc3nc2C)cc1 -4.56%
CCC(C(=O)NC1CCC(C)CC1)n1nc(C)c2sc3ccccc3c2c1=O (stereo not given) 0.126%
CC(C)c1ccc(NC(=O)CSc2nc3ccccc3nc2Cc2ccccc2)cc1 11.7%
COc1ccccc1CNC(=O)C1CCN(S(=O)(=O)c2ccc3c(c2)CCCN3C(C)=O)CC1 -1.6%
Cc1ccc(S(=O)(=O)N(C)Cc2nc(-c3ccccc3)oc2C)cc1 13.4%
CCOc1ccccc1NC(=O)Cn1nnc(C(=O)NCc2ccc(F)cc2)c1N -8.06%
CN(C)CCNC(=O)C(=O)NCC(c1cccnc1)N1CCN(c2ccc(F)cc2)CC1 (stereo not given) -3.17%
CCc1nc2nc(C)c(NS(=O)(=O)c3ccc(C)cc3)c(=O)n2[nH]1 -17.5%
COc1ccc(-c2c(C)nn3c(C(F)(F)F)cc(-c4ccccc4)nc23)cc1 -4.33%
COc1ccc(OC)c(NC(=O)c2cc(C3CC3)nc3c2c(C)nn3-c2ccc(C)cc2)c1 2.47%
O=C(Cn1cc(SCc2ccccc2F)c2ccccc21)N1CCCCC1 -13.5%
Cc1cc(C)cc(NC(=O)Cc2c(C(=O)O)c(C)cn2C)c1 -1.4%
O=C(NCc1ccco1)c1ccc2c(c1)N(Cc1c(F)cccc1Cl)C(=O)c1ccccc1S2 -1.76%
COc1ccc(C(=O)NCc2ccc3c(c2)CCN3C(=O)c2ccc(C)cc2)cc1 -10.2%
CCOc1ccc(-n2c(=O)c3c4c(sc3n(CC(=O)NC(C)CC)c2=O)CCCC4)cc1 (stereo not given) 1.84%
CC(=O)c1cccc(NC(=O)C2CCN(S(=O)(=O)c3ccc4[nH]c(=O)ccc4c3)CC2)c1 -1.8%
Cc1ccc(CNC(=O)C2CCN(Cc3nc(-c4cccc(Br)c4)oc3C)CC2)cc1 10.5%
Cc1ccc(-n2nc3ccc(NC(=O)COc4ccccc4)cc3n2)cc1Cl -7.8%
Cc1cccc(-n2c(=O)c3ccccc3n(Cc3ccccc3)c2=O)c1 -6.46%
O=C(CSc1nc2c([nH]c3ccccc32)c(=O)n1-c1cccc(C(F)(F)F)c1)N1CCc2ccccc21 0.845%
CCc1cc2c(cc(C(=O)OC)n2Cc2nc(-c3ccc(C)cc3)oc2C)s1 -0.231%
CCOc1ccc(N(CC)C(=O)c2nn(-c3ccc(OC)cc3)c(=O)c3c2c2ccccc2n3C)cc1 -7.1%
O=C(O)c1ccc(CNCc2ccccc2Cl)s1 -1.9%
CCc1ccc(C(=O)N2CCC(c3nc(-c4ccc(S(=O)(=O)N5CCCC5)cc4)no3)CC2)cc1 0.445%
O=S(=O)(c1ccc(Br)cc1)c1nnn2c1nc(NCc1ccc3c(c1)OCO3)c1sccc12 -1.2%
Cc1cccc(CNC(=O)c2ccc3oc(=O)n(Cc4ccccc4)c3c2)c1 -0.083%
CCCSc1ncc(Cl)c(C(=O)Nc2c(C(=O)Nc3ccc(OC)cc3)oc3ccccc23)n1 -1.62%
COc1cc(Cl)c(C)cc1NC(=O)Cn1ncc2c1-c1cc(C)ccc1OC2 0.425%
Cc1ccc(CNC(=O)CCCCCn2c(=O)c3sccc3n(CC(=O)Nc3c(C)cc(C)cc3C)c2=O)cc1 3.36%
COc1ccc(C(=O)Nc2nnc(SCc3cc(=O)n4cccc(C)c4n3)s2)cc1 -19.2%
CC1CCCN(Cc2nc3c(c(=O)n(C)c(=O)n3C)n2Cc2ccc(Cl)cc2)C1 (stereo not given) 1.06%
O=C(Nc1cc(Cl)ccc1Cl)c1cc2nc(-c3ccc4c(c3)OCO4)cc(C(F)(F)F)n2n1 0.644%
CSc1ccc(CNC(=O)C2CCN(c3nc4ccccc4nc3C(F)(F)F)CC2)cc1 -1.92%
COc1ccc(Cl)cc1NC(=O)C1CCN(S(=O)(=O)c2ccc3c(c2)CC(C)N3C(C)=O)CC1 (stereo not given) -4.34%
Cn1nc(C(=O)NCc2ccccc2Cl)c2c1-c1ccccc1S(=O)(=O)C2 -19.6%
Cc1cc(C)cc(NC(=O)CSc2oc(-c3ccco3)nc2S(=O)(=O)c2ccc(Cl)cc2)c1 -21.1%
Cc1cc(C)c(S(=O)(=O)N2CCC(N3CCN(Cc4ccccc4)C(=O)C3=O)CC2)c(C)c1 -12.4%
COc1ccc2c(c1)c1c(c(=O)n(-c3ccccc3C)c(=O)n1C)n2C -12.8%
COc1ccc(Nc2cc(C)c3cc(NC(=O)Cc4ccc(Cl)cc4)ccc3n2)cc1 -11.2%
Cc1ccc(Cl)cc1N1CCN(c2ncnc3c2nc2n3CCCCC2)CC1 1.97%
CCCCNC(=O)C1CCN(c2nc3ccccc3nc2C(F)(F)F)CC1 6.34%
COc1ccc(-n2ncc(C(=O)N3CCN(c4cc(C)ccc4C)CC3)c2C2CCN(C(=O)OC(C)(C)C)CC2)cc1 0.297%
COc1ccc(CNCc2c(C(=O)O)c(C)n(Cc3ccccc3C)c2C)c(OC)c1 -5.94%
O=C(CSc1cn(CCNC(=O)c2c(F)cccc2F)c2ccccc12)Nc1ccc(F)cc1 2.85%
Cc1nnc(NC(=O)CSc2nccn2Cc2ccc(Cl)cc2)s1 -3.61%
CCc1ccccc1NC(=O)Cc1ccc(NC(=O)N2CCCCc3ccccc32)cc1 -11.9%
Cc1nc2nc(NC(=O)CC(C)C)[nH]n2c(=O)c1Cc1ccccc1 -10.4%
COc1ccc(C)cc1NC(=O)c1cc2c(=O)n(Cc3cccnc3)ccc2nc1C -5.83%
Cc1ccc(-c2c(C(=O)N3CCN(c4cc(Cl)ccc4C)CC3)oc(=O)c3ccccc23)cc1 -5.72%
O=C(Nc1ccc(F)c(Cl)c1)N1CCC2(CC1)Oc1ccccc1C(=O)N2Cc1ccccc1F 4.49%
CCc1nnc(SCC(=O)Nc2cc(OC)ccc2OC)nc1CC 4.18%
CCN(Cc1ccccc1)C(=O)c1cc2c(=O)[nH]c3ccc(C)cc3c2s1 -3.68%
Cc1cccc(Cn2c(COc3ccc(Cl)cc3)nc3ccccc32)c1 -16.4%
CCOc1ccc(S(=O)(=O)N(CC(=O)NCCSc2ccc(C)cc2)c2ccccc2)cc1 -17.6%
Cc1ccc(NC(=O)N2CCN(c3ccc(Cl)c(Cl)c3)CC2)cc1 -19.7%
CCC(=O)N1CCc2cc(CNC(=O)c3ccc(OC)cc3)ccc21 -5.1%
CCn1nc(-c2ccccc2)c(-c2ccccc2)c(C(=O)Nc2nc(C)c(C(C)=O)s2)c1=O 1.39%
COc1ccc(-c2nc(CN3CCC(C(=O)NCCc4ccccc4)CC3)c(C)o2)cc1OC -1.22%
CCCCn1cc(S(=O)(=O)c2ccc(C)c(C)c2)c(=O)c2cc(F)c(N(CC)CC)cc21 -2.36%
Cc1ccc(NC(=O)CSc2nc(=O)n(Cc3ccco3)c3c2CCC3)cc1F -5.34%
Cn1c(=O)c(=O)n(C)c2cc(N3CCCC3)c(NC(=O)c3ccccc3F)cc21 -3.11%
O=C(Nc1sc2c(c1C(=O)Nc1cccc(Cl)c1)CCCC2)c1cccs1 11.2%
Cc1ccc2c(c1)-c1onc(C(=O)N3CCN(c4cc(Cl)ccc4C)CC3)c1CO2 9.76%
COC(=O)c1ccccc1NC(=O)c1cc(CN2CCCC2)on1 -5.11%
CCC(=O)N1CCc2cc(CNC(=O)Cc3ccc(F)cc3)ccc21 -4.05%
CCOc1ccc(-c2nnc(SCC(=O)Nc3ccc(C)cc3Cl)o2)cc1 -2.45%
CC1Cc2ccccc2N1S(=O)(=O)c1nnc(NC(=O)c2cccc(F)c2)s1 (stereo not given) 8.66%
